According to PubChem BioAssay AID1768 (National Center for Advancing Translational Sciences (NCATS), 2009):
Among all 270,000 compounds or so, about 620 (0.23%) were called active. Inconclusive results, whose numbers are uncertain, are shown with a selection of clear calls. Calls come from the whole dose curve; as a rule, active = well fitted inhibition curve with a large enough effect in the polarisation, with a control signal flat (not every such curve was filed as active); inconclusive = small, poorly fitted or top-dose-only effect, or effect the other way, or a change in a side signal; inactive = no such curve, though single readings can be large or run the other way; the % refers to the polarisation. Potencies beside an inconclusive call are fits to weak or partial responses and may not hold up. “Side channel” marks fits to a control or component signal instead of the main read-out.

target: Menin (Homo sapiens) (UniProt O00255); test: qHTS Assay for Inhibitors Targeting the Menin-MLL Interaction in MLL Related Leukemias: Competition With Texas Red Labeled MLL-derived Mutant Peptide; settings: fluorescence polarization; FP activity change, negative = inhibition: at 61.6 µM (top of the series); for FP activity change, negative = inhibition: % of control where 0% means no effect
Sequence of UniProt O00255 (O00255 whole entry, looked up): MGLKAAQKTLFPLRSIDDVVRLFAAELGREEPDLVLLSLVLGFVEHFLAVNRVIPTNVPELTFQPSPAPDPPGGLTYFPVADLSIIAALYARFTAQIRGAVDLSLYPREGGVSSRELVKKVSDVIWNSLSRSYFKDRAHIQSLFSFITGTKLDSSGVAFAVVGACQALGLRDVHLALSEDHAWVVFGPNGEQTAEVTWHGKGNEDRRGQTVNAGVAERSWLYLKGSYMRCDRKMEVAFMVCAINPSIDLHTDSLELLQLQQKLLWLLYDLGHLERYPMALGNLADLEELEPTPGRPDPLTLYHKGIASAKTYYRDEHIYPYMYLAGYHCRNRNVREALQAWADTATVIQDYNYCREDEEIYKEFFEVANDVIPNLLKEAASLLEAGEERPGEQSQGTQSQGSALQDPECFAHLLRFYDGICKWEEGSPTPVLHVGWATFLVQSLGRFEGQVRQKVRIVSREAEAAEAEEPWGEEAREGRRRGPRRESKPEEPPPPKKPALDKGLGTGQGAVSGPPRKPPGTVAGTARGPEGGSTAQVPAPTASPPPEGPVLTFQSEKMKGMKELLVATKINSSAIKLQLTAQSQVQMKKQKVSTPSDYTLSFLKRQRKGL
Potency is the fitted concentration of half-maximal effect; tags give direction and shape of the fitted curve or compound fluorescence and quenching.

Row | Structure (SMILES) | Potency | FP activity change, negative = inhibition
1 | CCC(c1nnc(SCC(=O)Nc2ccc(C(=O)Nc3ccccc3OC)cc2)o1)N(C)C (configuration not stated) | inconclusive: 20 µM [quencher, side channel, partial curve] | –
2 | CC(C)c1ccc(S(=O)(=O)Nc2ccc(N3CCOCC3)cc2)cc1 | inactive | –
3 | O=S(=O)(N/N=C/c1ccccc1OCc1ccc(Cl)cc1)c1ccccc1 | inconclusive: 20 µM [quencher, side channel, single point] | –
4 | CCOC(=O)c1c(NC(=O)c2cc3n(n2)C(C(F)(F)F)CC(c2cccs2)N3)sc(C)c1C (configuration not stated) | inactive | –
5 | CCN(CC(=O)c1c(N)n(C)c(=O)n(C)c1=O)c1cccc2ccccc12 | inconclusive: 12.6 µM [quencher, side channel, partial curve] | –
6 | COc1cc2c(cc1OC)C(c1cc(Br)ccc1F)N(C(=O)CCl)CC2 (configuration not stated) | inconclusive: 7.08 µM [fluorescent, side channel, partial curve] | –
7 | O=C1C=C(NCc2ccccc2)c2ccccc2C1=O | inconclusive: 12.6 µM [quencher, side channel, partial curve] | –
8 | COc1ccc(NS(=O)(=O)c2ccc3c(c2)[C@H]2C=CC[C@H]2[C@@H](c2ccc(C(=O)O)cc2)N3)cc1 | inconclusive: 10 µM [quencher, side channel, partial curve] | –
9 | O=[N+]([O-])c1cccc(/C=C/c2ccc3cccc(O)c3n2)c1 | inconclusive: 10 µM [quencher, side channel, partial curve] | –
10 | COC(=O)c1ccc(C2NC(=O)c3ccccc3O2)cc1 (configuration not stated) | inconclusive: 10 µM [inhibitor, partial curve] | –
11 | CCOc1cc(/C=N/NC(N)=O)cc(Br)c1OCc1ccccc1F | inconclusive: 17.8 µM [quencher, side channel, single point] | –
12 | S=C(NCc1ccc(Cl)cc1)N1CCN(c2ccccn2)CC1 | inconclusive: 35.5 µM [fluorescent, side channel, single point] | –
13 | Fc1cccc(C[n+]2csc3ccccc32)c1 | inconclusive: 0.631 µM [inhibitor, full curve, poor fit] | –
14 | CSc1nsc(/C=C/Nc2ccc(O)cc2C)c1C#N | inconclusive: 28.2 µM [fluorescent, side channel, single point] | –
15 | CC(=O)c1c(C)[nH]c(C2=NNC(=NCc3ccccc3)SC2)c1C | inconclusive: 11.2 µM [quencher, side channel, partial curve] | –
16 | CSc1cccc(NC(=O)/C=C/c2ccccc2)c1 | inconclusive: 12.6 µM [quencher, side channel, partial curve] | –
17 | S=C(Nc1ccc(Nc2ccccc2)cc1)NC1CCCCCC1 | inconclusive: 28.2 µM [quencher, side channel, partial curve] | –
18 | CC(C)N1CC2=C(OC(N)=C(C#N)C2c2cccnc2)/C(=C/c2cccnc2)C1 (configuration not stated) | active: 25.1 µM | –
19 | CCOC(=O)C(Cc1ccccc1)NC(=O)Cn1nnc(-c2ccc(SC)cc2)n1 (configuration not stated) | inconclusive: 39.8 µM [inhibitor, single point] | –

Row | Structure (SMILES) | Potency | FP activity change, negative = inhibition
20 | CN(CC(=O)NCCCN1CCOCC1)S(=O)(=O)c1ccc(F)cc1 | inconclusive: 28.2 µM [inhibitor, single point] | –
21 | O=C(NC(=S)Nc1ccc(NC(=O)c2cccs2)cc1)c1ccco1 | inconclusive: 22.4 µM [quencher, side channel, partial curve] | –
22 | COc1ccc(Br)cc1C(=O)NC(=S)Nc1ccc2[nH]c(=O)[nH]c2c1 | inconclusive: 25.1 µM [quencher, side channel, partial curve] | –
23 | CN(C)S(=O)(=O)c1ccc(Nc2ccc(-c3ccc4c(c3)OCCO4)nn2)cc1 | inconclusive: 39.8 µM [inhibitor, single point] | –
24 | COc1cc(Br)c(C2C(C#N)=C(N)Oc3n[nH]c(-c4cccnc4)c32)cc1OC (configuration not stated) | inconclusive: 1.12 µM [inhibitor, full curve, poor fit] | –
25 | Cc1cc(C(=O)OCC(=O)N2CC(=O)Nc3ccccc32)c(C)n1-c1ccc(F)cc1 | inconclusive: 17.8 µM [fluorescent, side channel, single point] | –
26 | COc1ccc(C(=O)NCc2nnc(SCC(=O)Nc3nc4ccccc4s3)o2)cc1 | inconclusive: 28.2 µM [fluorescent, side channel, single point] | –
27 | CN(C)c1nc(N)nc(CSc2nnnn2-c2cccc3ccccc23)n1 | inconclusive: 8.91 µM [inhibitor, single point] | –
28 | O=C1CC(Nc2ccc(N3CCOCC3)cc2)C(=O)N1c1cccc(C(F)(F)F)c1 (configuration not stated) | inconclusive: 39.8 µM [quencher, side channel, single point] | –
29 | O=[N+]([O-])c1ccc(NCCNCCOc2nonc2-c2ccccc2)c([N+](=O)[O-])c1 | inconclusive: 8.91 µM [quencher, side channel, partial curve] | –
30 | Cc1cc(-c2csc3nc[nH]c(=S)c23)cc(C)c1C | inconclusive: 39.8 µM [quencher, side channel, single point] | –
31 | N#Cc1c(N2CCN(C(=O)c3ccccc3)CC2)nc(-c2ccccc2)c2c1CCCC2 | inconclusive: 2.82 µM [fluorescent, side channel, full curve, poor fit] | –
32 | CC1CCN(Cc2cc(=O)oc3ccc(C(C)C)cc23)CC1 | inconclusive: 7.08 µM [inhibitor, partial curve] | –
33 | COc1ccc(-c2nn(-c3ccccc3)cc2C(=O)Nc2nccs2)cc1OC | inconclusive: 17.8 µM [quencher, side channel, partial curve] | –
34 | COc1ccc(NC(=O)NC(c2ccccc2)c2ccccc2)c(OC)c1 | inconclusive: 14.1 µM [inhibitor, partial curve] | –
35 | C[C@H]1Cc2c(COc3ccccc3)nc3c(c2CO1)CN(S(=O)(=O)c1ccc(Cl)c2nonc12)CC3 | – | inactive: -6.16% [at 11.7 µM]
36 | Nc1nc(-c2ccccc2)c(N=Nc2ccccc2Cl)s1 | inconclusive: 20 µM [quencher, side channel, partial curve] | –
37 | COc1ccc(-c2nn(-c3ccccc3)cc2/C=N/Nc2ccccn2)cc1OC | inconclusive: 12.6 µM [quencher, side channel, partial curve] | –
38 | CCOC(=O)C1CCN(C(=O)c2ccccc2CCc2ccccc2)CC1 | inconclusive: 7.08 µM [fluorescent, side channel, partial curve] | –

Row | Structure (SMILES) | Potency | FP activity change, negative = inhibition
39 | CCn1c2ccccc2c2cc(NC(=O)c3cccc(OC)c3OC)ccc21 | inconclusive: 25.1 µM [quencher, side channel, partial curve] | –
40 | Cc1[nH]c2ccccc2c1-c1csc(N)n1 | inconclusive: 20 µM [quencher, side channel, partial curve] | –
41 | COc1ccc(N=Nc2nc3ccc(Br)cc3n2C)cc1 | inconclusive: 2.24 µM [quencher, side channel, single point] | –
42 | CCOC(=O)N1CCC(NC(=O)CCC(=O)N2CCOc3ccc(C)cc32)CC1 | inconclusive: 3.55 µM [inhibitor, single point] | –
43 | Cc1ccc2nc(NC(=O)COC(=O)c3ccc(Br)o3)sc2c1 | inconclusive: 28.2 µM [quencher, side channel, single point] | –
44 | Cc1c(NC(=O)C(C)OC(=O)c2ccc([N+](=O)[O-])s2)c(=O)n(-c2ccccc2)n1C (configuration not stated) | inconclusive: 11.2 µM [inhibitor, partial curve] | –
45 | CCc1n[nH]c(=S)n1/N=C/c1c[nH]c2ccc(Br)cc12 | inconclusive: 14.1 µM [quencher, side channel, partial curve] | –
46 | NC(=O)c1ccc(-n2nnnc2SCC(=O)Nc2ccccc2)cc1 | inconclusive: 2.82 µM [inhibitor, full curve, poor fit] | –
47 | COCCCNC(=S)N1CCCN(c2nc3cc(C)c(C)cc3cc2C#N)CC1 | inconclusive: 28.2 µM [inhibitor, single point] | –
48 | O=C(O)/C=C/c1ccc(S(=O)(=O)Nc2ccc3[nH]c(=O)[nH]c3c2)cc1 | inactive | –
49 | Cc1cccc(Nc2nnc(SC/C(O)=C(\C#N)c3nc4ccccc4[nH]3)s2)c1C | inconclusive: 22.4 µM [quencher, side channel, single point] | –
50 | CCC(=O)Nc1ccc2nc(C)n(CC(=O)Nc3ccccc3)c(=O)c2c1 | inconclusive: 31.6 µM [quencher, side channel, single point] | –
51 | O=C(N/N=C/c1cccc(O)c1)c1ccc(COc2ccccc2Br)cc1 | inconclusive: 7.94 µM [quencher, side channel, full curve] | –
52 | COc1ccc(NC(=O)C2CSC3c4ccccc4C(=O)N23)cc1 (configuration not stated) | inconclusive: 25.1 µM [inhibitor, partial curve] | –
53 | Cc1cn2nc(N)c3ccccc3c2n1 | inactive | –
54 | CCCOc1ccc(C(=O)Nc2ccc(NC(=O)c3cccs3)cc2)cc1 | inconclusive: 12.6 µM [fluorescent, side channel, partial curve] | –
55 | Cc1oc(C)c(C(=O)Nc2ccccc2)c1C | inactive | –
56 | CCCC(=O)NC(c1cccs1)c1cc(Cl)c2cccnc2c1O (configuration not stated) | inconclusive: 10 µM [quencher, side channel, partial curve] | –
57 | O=C(NNc1c2ccccc2nc2ccccc12)c1ccccc1O | inconclusive: 22.4 µM [quencher, side channel, partial curve] | –
